Patent US20110201649A1, “AGRICULTURAL COMPOSITION” (SUMITOMO CHEMICAL COMPANY, LIMITED, priority 2008, published 2011)

System: Japanese Radish Alternaria Leaf Spot (Alternaria brassicicola)
Experiment: Test of effect in preventing infection by Japanese radish Alternaria leaf spot
Format: in vivo
Settings: Japanese radish (Wase-Shijunichi), foliar application 500 ppm, spore suspension sprayed, 1 day humid at 24° C. then 3 days in greenhouse
Procedure: Test of Effect in Preventing Infection by Japanese Radish Alternaria Leaf Spot (Alternaria brassicicola)
After inoculation, the plant was first allowed to stand under humid condition at 24° C. for 1 day, further, allowed to stand in a greenhouse for 3 days, then, the affected area was checked.

In the case of `Nc1ncccc1-c1cn(Cc2ccc(OCc3ccccc3)cc2)nn1` [compound 2751], the “lesion area on the treated plant as share of the lesion area on a non-treated plant” value is reported as at most 30%.
